{"source": "PubChem BioAssay AID2147", "about": "(National Center for Advancing Translational Sciences (NCATS), 2009)", "note": "Among all 230,000 compounds or so, about 3,600 (1.6%) were called active. Inconclusive results, whose numbers are uncertain, are shown with a selection of clear calls. Calls come from the whole dose curve; as a rule, active = well fitted inhibition curve with a large enough effect (not every such curve was filed as active); inconclusive = small, poorly fitted or top-dose-only effect, or another doubt; inactive = no such curve, though single readings can be large or run the other way. Potencies of inconclusive entries are doubtful fits and often do not repeat. Note: nearly all actives have a fitted effect of over 50% in size. Potency is the fitted concentration of half-maximal effect; tags give direction and shape of the fitted curve.", "data": [{"target": "Lysine-specific demethylase 4E (Homo sapiens) (UniProt B2RXH2)", "sequence (B2RXH2 whole entry, looked up, the tested form may be a part)": "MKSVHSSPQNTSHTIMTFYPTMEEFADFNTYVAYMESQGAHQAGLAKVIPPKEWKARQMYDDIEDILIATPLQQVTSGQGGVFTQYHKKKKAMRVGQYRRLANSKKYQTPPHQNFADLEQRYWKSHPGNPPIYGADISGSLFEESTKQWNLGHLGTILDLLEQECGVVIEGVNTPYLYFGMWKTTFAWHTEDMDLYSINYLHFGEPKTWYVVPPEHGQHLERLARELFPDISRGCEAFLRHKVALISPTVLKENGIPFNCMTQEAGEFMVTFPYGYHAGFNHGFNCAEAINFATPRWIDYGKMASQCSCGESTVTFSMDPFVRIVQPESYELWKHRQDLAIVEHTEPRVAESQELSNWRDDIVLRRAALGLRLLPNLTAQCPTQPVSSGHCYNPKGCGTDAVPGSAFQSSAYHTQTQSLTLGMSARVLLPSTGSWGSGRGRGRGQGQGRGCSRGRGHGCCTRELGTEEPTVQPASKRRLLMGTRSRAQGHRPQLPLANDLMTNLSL", "test": "qHTS Assay for Inhibitors of Human Jumonji Domain Containing 2E (JMJD2E)", "conditions": "JMJD2E catalytic domain, FDH-coupled NADH fluorescence (FDH is formaldehyde dehydrogenase); series mostly up to 57.1 µM", "values": [{"molecule": "CC(C)NCCOCCSc1ccc(Cl)cc1", "Potency": "inconclusive: 35.5 µM [inhibitor, single point]"}, {"molecule": "COc1ccc(CNC(=O)CN(Cc2ccccc2)S(=O)(=O)c2ccc(Cl)cc2)cc1", "Potency": "inactive"}, {"molecule": "O=C/C=C/c1ccc(O)cc1", "Potency": "active: 28.2 µM"}, {"molecule": "CC(=O)Nc1sc2c(c1CN1CCCC1)CCCC2", "Potency": "inactive"}, {"molecule": "CCN(CC)c1ccc(/C=C2\\C(=O)N(c3nnc(C)c(=O)[nH]3)N=C2C)cc1", "Potency": "inconclusive: 39.8 µM [inhibitor, single point]"}, {"molecule": "CC(C)(C)c1ccc(-c2c(C#N)c(N)nc3c2CCCC3)s1", "Potency": "inconclusive: 28.2 µM [inhibitor, partial curve]"}, {"molecule": "CN1CCN(C(c2ccccn2)c2cc(Cl)c3cccnc3c2O)CC1", "note": "(stereo not given)", "Potency": "active: 25.1 µM"}, {"molecule": "O=C(N/N=C/c1cn(-c2ccccc2)nc1-c1ccccc1)c1ccco1", "Potency": "inconclusive: 35.5 µM [inhibitor, single point]"}, {"molecule": "Cc1ccc2[nH]c3c(=O)n(Cc4ccccn4)cnc3c2c1", "Potency": "inconclusive: 25.1 µM [inhibitor, partial curve]"}, {"molecule": "COc1nc(Nc2ccc(O)cc2)nc(OC(C(F)(F)F)C(F)(F)F)n1", "Potency": "inactive"}, {"molecule": "Cc1cc(N)ccc1N=Nc1c(C)n(C)n(-c2ccccc2)c1=O", "Potency": "inactive"}, {"molecule": "COc1ccc(/C=C/c2ccncc2)cc1", "Potency": "inconclusive: 25.1 µM [inhibitor, single point]"}, {"molecule": "COC(=O)c1ccc(C(=O)OC)c(NC(=O)COC(=O)C2CCC(C(C)(C)C)CC2)c1", "note": "(stereo not given)", "Potency": "inconclusive: 35.5 µM [inhibitor, single point]"}, {"molecule": "O=C(N/N=C/c1ccccn1)c1sc2ccccc2c1Cl", "Potency": "inconclusive: 25.1 µM [inhibitor, single point]"}, {"molecule": "Cc1cccn2c(=O)c(C=O)c(N3CCSCC3)nc12", "Potency": "inactive"}, {"molecule": "Cc1ccc(/C=N/c2sc3c(c2C(N)=O)CCCC3)o1", "Potency": "inconclusive: 22.4 µM [inhibitor, single point]"}, {"molecule": "Cc1c(-n2cc(C(=O)c3cc(F)ccc3O)cc(C#N)c2=O)c(=O)n(-c2ccccc2)n1C", "Potency": "inactive"}, {"molecule": "CN(C(=O)COC(=O)c1cccc(NS(=O)(=O)c2ccc(F)c(F)c2)c1)C1CCS(=O)(=O)C1", "note": "(stereo not given)", "Potency": "inconclusive: 39.8 µM [inhibitor, single point]"}, {"molecule": "C=CCOc1ccc(/C=N/n2cncn2)cc1OC", "Potency": "inconclusive: 28.2 µM [inhibitor, single point]"}, {"molecule": "CCN1C2=C(C(=O)CCC2)C(c2ccc(O)c(Br)c2)C2=C1CCCC2=O", "Potency": "inconclusive: 28.2 µM [inhibitor, partial curve]"}, {"molecule": "CCOC(=O)COc1ccccc1C1Nc2ccccc2C(=O)N1c1cccc(Cl)c1", "note": "(stereo not given)", "Potency": "inconclusive: 35.5 µM [inhibitor, partial curve]"}, {"molecule": "COc1ccc(-c2n[nH]c(C)c2-c2ccc(OC)c(OC)c2)c(O)c1", "Potency": "inconclusive: 39.8 µM [inhibitor, single point]"}, {"molecule": "CCOC(=O)Cc1csc(NC(=O)c2ccc(C)cc2)n1", "Potency": "inactive"}, {"molecule": "COC(=O)c1c(NC(=O)CN2CCCc3ccccc32)sc(C)c1C", "Potency": "inconclusive: 39.8 µM [inhibitor, single point]"}, {"molecule": "CCCCOC(=O)C1=C(C)Nc2nnnn2C1c1ccccc1Cl", "note": "(stereo not given)", "Potency": "inactive"}, {"molecule": "CC(C)(C)C(=O)Cn1c(=N)n(Cc2ccccc2)c2ccccc21", "Potency": "inconclusive: 39.8 µM [inhibitor, single point]"}, {"molecule": "COc1ccc2nc(C)cc(SCC(=O)OC(C)C)c2c1", "Potency": "inconclusive: 39.8 µM [inhibitor, single point]"}, {"molecule": "N#Cc1ccccc1NC(=O)C1SC(=Nc2ccccc2)C(C(=O)Nc2ccc(Cl)cc2)=C1N", "note": "(stereo not given)", "Potency": "inconclusive: 39.8 µM [inhibitor, single point]"}, {"molecule": "Cc1cc(C(=O)Nc2nc3c(C)cccc3s2)c(C)o1", "Potency": "inconclusive: 35.5 µM [inhibitor, single point]"}, {"molecule": "CC(=O)C1=NN(c2ccccc2)C(c2cccs2)N1c1ccc(N(C)C)cc1", "note": "(stereo not given)", "Potency": "inconclusive: 28.2 µM [inhibitor, single point]"}, {"molecule": "COCCNC(=O)Cn1cc(C(=O)c2ccco2)c2ccccc21", "Potency": "inconclusive: 31.6 µM [inhibitor, single point]"}, {"molecule": "C=C1CC23C[C@H]4[C@@H]5[C@@]6(C)C[C@H](OC(=O)c7ccccc7)[C@@H](OC(C)=O)[C@]57[C@@H]2[C@@H](OC(C)=O)[C@H]1[C@@H](O)[C@H]3[C@H]7N4C6", "Potency": "inactive"}, {"molecule": "Cc1cccc2sc(NC(=O)C3CCCN(S(=O)(=O)c4cccc5nonc45)C3)nc12", "note": "(stereo not given)", "Potency": "inconclusive: 25.1 µM [inhibitor, single point]"}, {"molecule": "Cc1ccc(NC2Sc3ccccc3NC2=O)cc1", "note": "(stereo not given)", "Potency": "active: 22.4 µM"}, {"molecule": "COc1ccc(-n2c(O)c(C=NCC(c3ccco3)N3CCCC3)c3ccccc3c2=O)cc1OC", "note": "(stereo not given)", "Potency": "inconclusive: 25.1 µM [inhibitor, partial curve]"}, {"molecule": "CC(=O)C1=NN(c2ccccc2)C(c2ccc3c(c2)OCO3)N1c1ccc(N2CCOCC2)cc1", "note": "(stereo not given)", "Potency": "inactive"}, {"molecule": "O=C(CSc1ccc2nnc(-c3ccc(F)cc3)n2n1)NCC1CCCO1", "note": "(stereo not given)", "Potency": "inconclusive: 11.2 µM [inhibitor, partial curve]"}, {"molecule": "CN(CCOc1cccc(C(F)(F)F)c1)Cc1ccccc1", "Potency": "inconclusive: 31.6 µM [inhibitor, single point]"}, {"molecule": "COC(=O)c1ccc(C(=O)OC)c(NC(=O)COC(=O)c2ccccc2OC)c1", "Potency": "inconclusive: 35.5 µM [inhibitor, single point]"}, {"molecule": "COC(=O)c1c(C)oc2ccc(N(C(=O)c3ccncc3)S(=O)(=O)c3ccc(C)cc3)cc12", "Potency": "inconclusive: 25.1 µM [inhibitor, single point]"}, {"molecule": "COc1ccc(OC)c(C2CC(=O)N3CN(c4ccc(C)c(Cl)c4)CSC3=C2C#N)c1", "note": "(stereo not given)", "Potency": "inconclusive: 39.8 µM [inhibitor, single point]"}, {"molecule": "Cn1cnc([N+](=O)[O-])c1Oc1ccccc1", "Potency": "inactive"}, {"molecule": "COC(=O)c1c(NC(=O)Cc2cccs2)sc2c1CCC(C)C2", "note": "(stereo not given)", "Potency": "inconclusive: 39.8 µM [inhibitor, single point]"}, {"molecule": "Oc1ccccc1CN1CCC(C(O)(c2ccccc2)c2ccccc2)CC1", "Potency": "inconclusive: 39.8 µM [inhibitor, single point]"}, {"molecule": "Cn1c(=O)c2c(nc(NCc3ccc4c(c3)OCO4)n2Cc2ccccc2)n(C)c1=O", "Potency": "inactive"}, {"molecule": "CCOc1c2ccc(C(=O)NCc3ccc(C)cc3)cc2nn1CC", "Potency": "inconclusive: 31.6 µM [inhibitor, partial curve]"}, {"molecule": "Cc1sc(NC(=O)c2ccco2)c(C(c2cccnc2)N2CCCC2)c1C", "note": "(stereo not given)", "Potency": "inactive"}, {"molecule": "C[C@H]1COc2c(C3(N)CC3)c(F)cc3c(=O)c(C(=O)O)cn1c23", "Potency": "inconclusive: 25.1 µM [inhibitor, single point]"}, {"molecule": "O=C(N/N=C(\\CC(=O)c1cccs1)C(F)(F)F)c1cccnc1", "Potency": "inconclusive: 28.2 µM [inhibitor, single point]"}, {"molecule": "Cc1c(C(=O)OC2CCCC2)[nH]c2c1C(=O)CC(c1ccco1)C2", "note": "(stereo not given)", "Potency": "inactive"}, {"molecule": "CCOC(=O)C1(Cc2ccccc2)CCCN(C2CCCC2)C1", "note": "(stereo not given)", "Potency": "inconclusive: 31.6 µM [inhibitor, single point]"}, {"molecule": "O=C(O)CCC(=O)Nc1ccc(-c2nnc(-c3ccco3)o2)cc1", "Potency": "inconclusive: 28.2 µM [inhibitor, partial curve]"}, {"molecule": "Cc1ccc(C(=O)CSC2=C(C#N)C(c3ccco3)C3=C(CCCC3=O)N2)cc1", "note": "(stereo not given)", "Potency": "inactive"}, {"molecule": "CCOC(=O)c1c(NC(=O)c2ccoc2C)sc(C)c1C", "Potency": "inconclusive: 25.1 µM [inhibitor, partial curve]"}, {"molecule": "Fc1ccc(-c2ccnc3nc(N4CCOCC4)nn23)cc1", "Potency": "inconclusive: 17.8 µM [inhibitor, partial curve]"}, {"molecule": "COc1ccc(/C=N/NC(=O)c2ccccc2OCc2ccccc2)c(OC)c1", "Potency": "inconclusive: 31.6 µM [inhibitor, single point]"}, {"molecule": "CCCCc1cc(=O)oc2cc(OCc3nn[nH]n3)c(Cl)cc12", "Potency": "inconclusive: 28.2 µM [inhibitor, partial curve]"}, {"molecule": "O=C(Nc1ccc(OC(F)F)c(Cl)c1)Nc1ccc2c(c1)OCO2", "Potency": "inactive"}, {"molecule": "O=C(CSc1nnc(-c2ccc(F)cc2)o1)Nc1ccc(S(=O)(=O)N2CCCCCC2)cc1", "Potency": "inactive"}, {"molecule": "CC1=[N+](C)N(c2ccccc2)C(=O)C1N=C/C=C/c1ccccc1", "note": "(stereo not given)", "Potency": "inactive"}, {"molecule": "Cc1ccc(-c2ccc(CCC(=O)O)o2)cc1", "Potency": "inconclusive: 25.1 µM [inhibitor, partial curve]"}, {"molecule": "OC(COc1ccccc1)CN1CCN(Cc2ccc3c(c2)OCO3)CC1", "note": "(stereo not given)", "Potency": "inconclusive: 28.2 µM [inhibitor, single point]"}, {"molecule": "CCOc1cc2c(cc1/C=C/C(=O)O)OC(C)C2", "note": "(stereo not given)", "Potency": "inconclusive: 22.4 µM [inhibitor, partial curve]"}, {"molecule": "COc1cc(CNCc2ccc(OC)c(OC)c2OC)cc(OC)c1", "Potency": "inconclusive: 22.4 µM [inhibitor, single point]"}, {"molecule": "Cc1c(N=C2N=C(NC(=O)c3ccc(F)cc3)c3ccccc32)c(=O)n(-c2ccccc2)n1C", "Potency": "inactive"}, {"molecule": "COc1ccc(C2CC(c3cccs3)n3nc(N)nc3N2)cc1", "note": "(stereo not given)", "Potency": "inconclusive: 28.2 µM [inhibitor, partial curve]"}, {"molecule": "CC(=O)Nc1nc(S(=O)(=O)c2ccc(C)cc2)c(Cl)s1", "Potency": "inactive"}, {"molecule": "CCN(CC)S(=O)(=O)c1ccc(Cl)c(NC(=O)CCCCl)c1", "Potency": "inconclusive: 25.1 µM [inhibitor, single point]"}, {"molecule": "CC1(C)Cc2c(C#N)c(SCc3nc4ccccc4[nH]3)nc(N3CCOCC3)c2CO1", "Potency": "inconclusive: 28.2 µM [inhibitor, partial curve]"}, {"molecule": "CCC(=O)NC(=S)Nc1ccccc1C(=O)OC", "Potency": "inactive"}]}]}
